Measured values reported in PMC6919601, “Identification of Plasmodium dipeptidyl aminopeptidase allosteric inhibitors by high throughput screening” (PLoS ONE, 2019).
Hit rate of the full screen: of about 110,000 compounds, about 230 (0.21%) showed an effect of 50% or more. The list shows a part of the results.

target: DPAP1 (Plasmodium falciparum, UniProt Q8IIJ9); experiment: primary screen, percent inhibition; read by cleavage of a fluorogenic dipeptide substrate; higher = more effect of the substance; design: species or system P. falciparum D10 trophozoite lysates; single well
Sequence (Q8IIJ9 whole entry, looked up): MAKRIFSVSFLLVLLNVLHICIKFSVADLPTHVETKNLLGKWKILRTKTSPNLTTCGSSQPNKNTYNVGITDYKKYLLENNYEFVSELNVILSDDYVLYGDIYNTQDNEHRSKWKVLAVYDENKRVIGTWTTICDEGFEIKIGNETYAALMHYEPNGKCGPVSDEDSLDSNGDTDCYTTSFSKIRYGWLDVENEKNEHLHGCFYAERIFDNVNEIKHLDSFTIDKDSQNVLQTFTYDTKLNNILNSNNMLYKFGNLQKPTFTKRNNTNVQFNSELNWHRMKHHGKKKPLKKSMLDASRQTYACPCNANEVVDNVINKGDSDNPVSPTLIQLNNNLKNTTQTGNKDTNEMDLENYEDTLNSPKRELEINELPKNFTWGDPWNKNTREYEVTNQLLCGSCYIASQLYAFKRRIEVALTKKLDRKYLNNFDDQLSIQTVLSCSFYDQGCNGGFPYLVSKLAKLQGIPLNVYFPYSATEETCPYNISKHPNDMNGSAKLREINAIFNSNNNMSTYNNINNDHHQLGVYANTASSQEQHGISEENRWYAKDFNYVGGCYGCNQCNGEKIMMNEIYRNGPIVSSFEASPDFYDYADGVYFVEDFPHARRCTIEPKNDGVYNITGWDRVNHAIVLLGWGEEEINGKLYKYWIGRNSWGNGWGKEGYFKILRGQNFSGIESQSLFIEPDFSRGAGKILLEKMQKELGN
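Also: 30 min substrate incubation versus DMSO and 10 µM JCP410 controls.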

Point of comparison: `COc1cccc(C2C(C#N)=C(N)N(c3c(F)cccc3F)C3=C2C(=O)CCC3)c1` (stereo not shown), “% Inhibition @ 10 uM” value -8.72%. Against it:
- COCc1cc(C)nc(SCc2ccc(Cl)cc2Cl)c1C#N — higher, -1.25%
- CC(C)(C)c1ccc(OCc2ccc(C(=O)Nc3cccnc3)o2)cc1 — lower, -11%
- CCN(CC)CCN1C(=O)C(O)=C(C(=O)c2ccc(F)cc2)C1c1ccccc1F (stereo not shown) — higher, 1.61%
- CN1CCN(C(=O)CN2C(=O)c3ccccc3Sc3ncccc32)CC1 — higher, -7.24%
- O=C(NC1(C(F)(F)F)NC(=O)N(Cc2ccccc2)C1=O)c1cccs1 (stereo not shown) — higher, -1.72%
- CCCCCCOc1ccc(OCC(O)CN2C(=O)NC(C)(C)C2=O)cc1 (stereo not shown) — higher, -3.4%
- O=C1CC(c2ccccc2)CC(=O)C1=CNC1CCCC1 (stereo not shown) — higher, -3.78%
- CC1=NN(C(=O)c2ccc(COc3ccc4ccccc4c3)o2)C(O)(C(F)(F)F)C1 (stereo not shown) — higher, -2.83%
- COCCCNC(=O)/C(=C\c1ccccc1F)NC(=O)c1ccc(C)cc1 — higher, -3.69%
- CC(C)CN(CC(C)C)S(=O)(=O)c1ccc(C(=O)O)cc1 — higher, -3.04%
- O=C(Nc1ccccc1O)c1ccc([N+](=O)[O-])cc1 — higher, 3.06%
- CSc1ccc(CCNC(=O)CCCn2nc(C)c3c(C)n(-c4ccc(C)cc4)nc3c2=O)cc1 — higher, -3.05%
- COc1ccc(CN2CCN(c3ccc(C(C)=O)cc3)CC2)cc1OC — higher, -2.6%
- COc1ccc2c(c1)Cc1sc(NC(=O)c3ccccc3Cl)nc1-2 — higher, 3.25%
- COc1cc2cc(C)nc(Cc3cccc4ccccc34)c2cc1OC — higher, -0.467%
- Cc1noc(/C=C/N2CCOCC2)c1S(=O)(=O)N(C)CC(=O)NC1CCCCC1 — higher, 17.5%
- Fc1ccc(CN2CCN(c3cccc(C(F)(F)F)c3)CC2)c(F)c1 — higher, -3.56%
- Cc1ccc2nc(N3CCNCC3)c(-n3nc(C)cc3C)nc2c1 — higher, -0.92%
- Cc1ccc(CNC(=O)CSc2nc3nccnc3c(=O)n2CCCOC(C)C)cc1 — higher, -3.73%
- CCOc1ccc(-n2c(C)nnc2SCc2nc(-c3ccc(Cl)cc3)no2)cc1 — higher, -0.666%
- CC(=O)Nc1ccc(OC(C)C)cc1 — higher, 4.65%
- Cc1ccc(C)c(NC(=O)C23CCC(C)(C(=O)C2=O)C3(C)C)c1 (stereo not shown) — higher, -2.84%
- Nc1ccc2[nH]c(-c3ccc(-c4nc5cc(N)ccc5o4)cc3)nc2c1 — higher, 0.361%
- CCOc1ccc2nc(NC(=O)CCCCC(=O)O)sc2c1 — higher, 4.55%
- CC1(C)COC(c2cccc(C3=NC(C)(C)CO3)n2)=N1 — higher, 0.324%
- COc1ccc(-c2cc(C)no2)cc1S(=O)(=O)NC1CCCc2ccccc21 (stereo not shown) — higher, 0.098%
- COc1ccccc1C(=O)Nc1ccc2nn(-c3ccc(N(C)C)cc3)nc2c1 — higher, -6.67%
- COc1ccccc1-n1c(CNC(=O)c2cccc(C)c2)nnc1SCC(=O)Nc1nccs1 — higher, 2.12%
- Cc1[nH]c2ccccc2c1/C=C1\SC(=N)N(c2nccs2)C1=O — higher, -4.91%
- CCOc1cccc2cc(C(=O)Nc3nccs3)c(=O)oc12 — higher, 6.56%
- Cc1ccc(-c2nc(CS(=O)(=O)CC(=O)N3CC(C)CC(C)C3)c(C)o2)cc1 (stereo not shown) — higher, -1.89%
- CCOc1ccc(CCNC(=O)CCc2c(C)nc3c4c(C)cc(C)nc4nn3c2C)cc1OCC — higher, 7.05%
- CC(C)C[C@H](NC(=O)c1ccc(-c2ccccc2)nc1)C(=O)NCC#N — higher, 2.87%
- CCOC(=O)N1CCN(C(=O)CSc2nnc(Cc3cccn3C)n2-c2ccc(F)cc2)CC1 — higher, -7.65%
- Cc1ccc(-c2nnc(N3CCOCC3)c3ccccc23)cc1S(=O)(=O)NC(C)(C)CO — higher, 3.59%
- CC(C)(C)c1ccc(OCCCCCN2CCNCC2)cc1 — higher, 2.54%
- O=[N+]([O-])c1ccc(Cl)c(CN2CCc3ccccc3C2)c1 — higher, 4.73%
- Cc1ccc(CC(=O)Nc2nnc(Cc3ccc(Cl)cc3)s2)cc1 — lower, -8.79%
- COc1cc(OC)cc(-c2cc3nc(C)c(CCC(=O)NCc4ccc(F)cc4)c(C)n3n2)c1 — higher, -0.465%
- O=C(CCc1nc(-c2ccccc2F)no1)NCCN1CCOCC1 — higher, 6.64%
- O=C1NC(=S)S/C1=C\c1ccc(-c2cc(Cl)ccc2Cl)o1 — higher, 7.31%
- Cc1noc2c1C(c1ccsc1)C(C#N)=C(N)N2 (stereo not shown) — higher, 2.32%
- Cc1cc(N2CCOCC2)c(F)cc1C(=O)c1ccccc1 — higher, -0.711%
- Cc1cc(-c2[nH]nc3c2C(c2c[nH]c4ccccc24)C(C#N)=C(N)O3)c(C)s1 (stereo not shown) — higher, -0.105%
- CCOc1ccc(CCNC(=O)Cn2sc3nc(C)cc(C)c3c2=O)cc1 — higher, 18.9%
- CCc1nc2nc(C)c(NS(=O)(=O)c3ccc(C4CCCCC4)cc3)c(O)n2n1 — higher, 3.5%
- CC(C)COc1cccc(-c2cc(C(=O)Nc3ccon3)c3ccccc3n2)c1 — higher, -1.1%
- c1ccc2c(Cn3ccnc3)c[nH]c2c1 — higher, -0.0404%
- CCCC1=NCCn2cccc21 — higher, 1.54%
- COc1ccc(C2C(=O)N(C3CCCCC3)CC(=O)N2Cc2ccc(C)cc2)cc1 (stereo not shown) — higher, 1.27%
- O=C1NCCN/C1=C\C(=O)c1ccc(Cl)cc1 — higher, -6.29%
- COc1ccc(C(=O)Nc2nc(-c3ccc(Cl)cc3)cs2)c(OC)c1 — higher, -3.26%
- CCCC(=O)N1CC2(c3ccccc3)CN(C(=O)CCC)CC(c3ccccc3)(C1)C2=O — higher, -5.33%
- O=C(NCc1ccccc1)N1CCC(CN2CCCCC2)CC1 — higher, 0.66%
- CCNC(=O)CN(Cc1ccc(Br)cc1)S(=O)(=O)c1ccc(Cl)cc1 — higher, 1.8%
- CCOC(=O)N1CCC(NCc2ccco2)CC1 — higher, -0.0953%
- CCOC(=O)c1c(NC(C)=O)sc2c1CCC2 — higher, 1.74%
- COc1ccc2[nH]cc(CCNC(N)=O)c2c1 — higher, -3.65%
- O=C(NCc1cccnc1)c1cc(S(=O)(=O)N2CCCCC2)c[nH]1 — higher, -5.3%
- CCN(CC)c1ccc(NC(=O)c2ccc(Br)cc2)cc1 — higher, 5.15%
- CC(=O)N1N=C(c2ccccc2)CC1c1ccc(Cl)cc1Cl (stereo not shown) — higher, 3.74%
- CN(C)CCN(C)Cc1cccnc1 — higher, -4.58%
- COc1ccc(CCN2C(=O)C(O)=C(C(=O)c3ccco3)C2c2cccs2)cc1OC (stereo not shown) — higher, 4.44%
